Assays:
BT474 = test: cells; conditions: Homo sapiens, BT-474, read-out: EC50 BT474
[1] = system: U87MG human glioblastoma cell line; test: cells; conditions: U-87 MG, read-out: EC50 U87MG

Row | Compound | EC50 (BT474) | EC50 [1]
1 | CCc1ncnc(-c2cc(F)c(C(=O)N3CCN(C)CC3)c(F)c2)c1C#Cc1ccc(N)nc1 [Example E-1] | 18.2 nM | 46.9 nM
2 | CCc1ncnc(-c2cc(F)c(C(=O)N3CCC(N4CCOCC4)CC3)c(F)c2)c1C#Cc1ccc(N)nc1 [Example E-9] | 9.76 nM | 13 nM
3 | CCc1ncnc(-c2cc(F)c(C(=O)N3CCN(CC4CC4)CC3)c(F)c2)c1C#Cc1ccc(N)nc1 [Example E-7] | 16.4 nM | 131 nM
4 | CCc1ncnc(-c2cc(F)c(C(=O)N3CCNCC3)c(F)c2)c1C#Cc1ccc(N)nc1 [Example E-14] | 16.6 nM | 58.7 nM
5 | CCc1ncnc(-c2ccc(C(=O)N3CCN4CCC[C@H]4C3)c(F)c2)c1C#Cc1ccc(N)nc1 [Example E-142] | 16.1 nM | 18.8 nM
6 | CCc1ncnc(-c2ccc(C(=O)N3CCC(C(C)(C)O)CC3)c(OC)c2)c1C#Cc1ccc(N)nc1 [Example E-44] |  | 200 nM
7 | CCc1ncnc(-c2ccc(C(=O)N(C)CCN3CCCC3=O)c(Cl)c2)c1C#Cc1ccc(N)nc1 [Example E-85] |  | 280 nM
8 | CCc1ncnc(-c2ccc(C(=O)N3CCC(N4CCN(C)CC4)CC3)c(Cl)c2)c1C#Cc1ccc(N)nc1 [Example E-70] | 28.6 nM | 74.9 nM
9 | CCc1ncnc(-c2ccc(C(=O)N3CCC(C(C)(C)O)CC3)c(Cl)c2)c1C#Cc1ccc(N)nc1 [Example E-20] |  | 55.3 nM
10 | CCc1ncnc(-c2ccc(C(=O)N3CCC(OC)CC3)c(C)c2)c1C#Cc1ccc(N)nc1 [Example E-118] |  | 30.9 nM
11 | CCc1ncnc(-c2ccc(C(=O)N3CCN(C4CCCC4)CC3)c(C)c2)c1C#Cc1ccc(N)nc1 [Example E-114] |  | 47.4 nM
12 | CCc1ncnc(-c2cc(F)c(C(=O)N3CCCC3)c(F)c2)c1C#Cc1ccc(N)nc1 [Example E-11] |  | 79.8 nM
13 | CCCCN1CCN(C(=O)c2ccc(-c3ncnc(CC)c3C#Cc3ccc(N)nc3)cc2OC)CC1 [Example E-43] |  | 207 nM
14 | CCc1ncnc(-c2ccc(C(=O)N3CCCC(N(C)C)C3)c(C)c2)c1C#Cc1ccc(N)nc1 (stereo not drawn) [Example E-95] |  | 267 nM
15 | CCc1ncnc(-c2ccc(C(=O)N3CCN(C4CCS(=O)(=O)C4)CC3)c(OC)c2)c1C#Cc1ccc(N)nc1 (stereo not drawn) [Example E-54] |  | 515 nM
16 | CCc1ncnc(-c2ccc(C(=O)N3CCOCC3)c(Cl)c2)c1C#Cc1ccc(N)nc1 [Example E-72] |  | 102 nM
17 | CCc1ncnc(-c2ccc(C(=O)N3CCNCC3)c(Cl)c2)c1C#Cc1ccc(N)nc1 [Example E-34] |  | 174 nM
18 | CCc1ncnc(-c2ccc(C(=O)N3CCCN(C)CC3)c(C)c2)c1C#Cc1ccc(N)nc1 [Example E-129] |  | 86.5 nM
19 | CCc1ncnc(-c2ccc(C(=O)N3CCN(Cc4ccccc4)CC3)c(Cl)c2)c1C#Cc1ccc(N)nc1 [Example E-42] |  | 248 nM
20 | CCc1ncnc(-c2ccc(C(=O)N3CCN(S(=O)(=O)CC)CC3)c(Cl)c2)c1C#Cc1ccc(N)nc1 [Example E-81] |  | 34.3 nM
21 | CCc1ncnc(-c2cc(F)c(C(=O)N3CCN(CC)CC3)c(F)c2)c1C#Cc1ccc(N)nc1 [Example E-3] | 14.7 nM | 47.1 nM

Row | Compound | EC50 (BT474) | EC50 [1]
22 | CCc1ncnc(-c2ccc(C(=O)N3CCC(N(C)C)CC3)c(C)c2)c1C#Cc1ccc(N)nc1 [Example E-103] |  | 210 nM
23 | CCc1ncnc(-c2ccc(C(=O)N3CCCOCC3)c(C)c2)c1C#Cc1ccc(N)nc1 [Example E-133] |  | 43.1 nM
24 | CCc1ncnc(-c2ccc(C(=O)N3CC[C@H](N(C)C)C3)c(C)c2)c1C#Cc1ccc(N)nc1 [Example E-99] |  | 270 nM
25 | CCc1ncnc(-c2cc(F)c(C(=O)N3CCN(C(C)(C)C)CC3)c(F)c2)c1C#Cc1ccc(N)nc1 [Example E-8] |  | 84 nM
26 | CCc1ncnc(-c2ccc(C(=O)N3CC[C@@H](N(C)C)C3)c(OC)c2)c1C#Cc1ccc(N)nc1 [Example E-56] |  | 452 nM
27 | CCc1ncnc(-c2ccc(C(=O)NCCN3CCOCC3)c(Cl)c2)c1C#Cc1ccc(N)nc1 [Example E-84] |  | 68.4 nM
28 | CCc1ncnc(-c2cc(F)c(C(=O)N3CCN(CCOC)CC3)c(F)c2)c1C#Cc1ccc(N)nc1 [Example E-5] | 27.5 nM | 49.4 nM
29 | CCc1ncnc(-c2ccc(C(=O)N3CCCO3)c(C)c2)c1C#Cc1ccc(N)nc1 [Example E-94] |  | 119 nM
30 | CCc1ncnc(-c2ccc(C(=O)N3CCNCC3)c(C)c2)c1C#Cc1ccc(N)nc1 [Example E-127] |  | 67.8 nM
31 | CCc1ncnc(-c2ccc(C(=O)N(C)OC)c(Cl)c2)c1C#Cc1ccc(N)nc1 [Example E-79] |  | 77.9 nM
32 | CCc1ncnc(-c2ccc(C(=O)N3CCN(C(C)=O)CC3)c(C)c2)c1C#Cc1ccc(N)nc1 [Example E-108] |  | 143 nM
33 | CCc1ncnc(-c2ccc(C(=O)N3CCC4(CC3)OCCCO4)c(Cl)c2)c1C#Cc1ccc(N)nc1 [Example E-19] | 30.3 nM | 30.3 nM
34 | CCc1ncnc(-c2ccc(C(=O)N3CCN4CCC[C@H]4C3)c(Cl)c2)c1C#Cc1ccc(N)nc1 [Example E-141] |  | 33.1 nM
35 | CCc1ncnc(-c2ccc(C(=O)N3CCC4(CCN(C)C4)C3)c(C)c2)c1C#Cc1ccc(N)nc1 (stereo not drawn) [Example E-112] |  | 336 nM
36 | CCc1ncnc(-c2ccc(C(=O)N3CCCC(O)C3)c(Cl)c2)c1C#Cc1ccc(N)nc1 (stereo not drawn) [Example E-29] |  | 69.6 nM
37 | CCc1ncnc(-c2ccc(C(=O)N(C)OC)c(OC)c2)c1C#Cc1ccc(N)nc1 [Example E-60] |  | 124 nM
38 | CCc1ncnc(-c2ccc(C(=O)N(C)C3CCS(=O)(=O)C3)c(OC)c2)c1C#Cc1ccc(N)nc1 (stereo not drawn) [Example E-61] |  | 244 nM
39 | CCc1ncnc(-c2ccc(C(=O)N3CCC(N4CCCCCC4)CC3)c(C)c2)c1C#Cc1ccc(N)nc1 [Example E-102] |  | 109 nM
40 | CCc1ncnc(-c2ccc(C(=O)N3CCC[C@H]3CO)c(F)c2)c1C#Cc1ccc(N)nc1 [Example E-17] |  | 96.5 nM
41 | CCc1ncnc(-c2ccc(C(=O)N3CCC(N4CCCCCC4)CC3)c(OC)c2)c1C#Cc1ccc(N)nc1 [Example E-58] |  | 450 nM
42 | CCc1ncnc(-c2ccc(C(=O)N3CC(O)CO3)c(OC)c2)c1C#Cc1ccc(N)nc1 (stereo not drawn) [Example E-49] |  | 1060 nM

Row | Compound | EC50 (BT474) | EC50 [1]
43 | CCc1ncnc(-c2ccc(C(=O)N3CCOCC3)c(C)c2)c1C#Cc1ccc(N)nc1 [Example E-92] |  | 123 nM
44 | CCc1ncnc(-c2ccc(C(=O)N3CC(O)CO3)c(C)c2)c1C#Cc1ccc(N)nc1 (stereo not drawn) [Example E-93] |  | 152 nM
45 | CCc1ncnc(-c2ccc(C(=O)N(C)CCN3CCCC3=O)c(C)c2)c1C#Cc1ccc(N)nc1 [Example E-111] |  | 267 nM
46 | CCc1ncnc(-c2ccc(C(=O)N3CCC(C)(O)CC3)c(Cl)c2)c1C#Cc1ccc(N)nc1 [Example E-25] |  | 57.3 nM
47 | CCc1ncnc(-c2ccc(C(=O)N3CCCOCC3)c(Cl)c2)c1C#Cc1ccc(N)nc1 [Example E-39] |  | 75.6 nM
48 | CCc1ncnc(-c2ccc(C(=O)N3CCC(N4CCN(C)CC4)CC3)c(C)c2)c1C#Cc1ccc(N)nc1 [Example E-89] |  | 222 nM
49 | CCc1ncnc(-c2ccc(C(=O)N3CCN4CCC[C@@H]4C3)c(Cl)c2)c1C#Cc1ccc(N)nc1 [Example E-139] |  | 74.2 nM
50 | CCc1ncnc(-c2ccc(C(=O)N3CCN4CCC[C@@H]4C3)c(F)c2)c1C#Cc1ccc(N)nc1 [Example E-140] | 13.7 nM | 39.2 nM
51 | CCCN1CCN(C(=O)c2c(F)cc(-c3ncnc(CC)c3C#Cc3ccc(N)nc3)cc2F)CC1 [Example E-4] | 27.3 nM | 75.3 nM
52 | CCc1ncnc(-c2ccc(C(=O)N3CCC4(CC3)OCCCO4)c(C)c2)c1C#Cc1ccc(N)nc1 [Example E-117] |  | 26.7 nM
53 | CCc1ncnc(-c2ccc(C(=O)N3CCC4(CCN(C)C4)C3)c(OC)c2)c1C#Cc1ccc(N)nc1 (stereo not drawn) [Example E-66] |  | 716 nM
54 | CCc1ncnc(-c2ccc(C(=O)N3CC[S+]([O-])CC3)c(Cl)c2)c1C#Cc1ccc(N)nc1 [Example E-23] |  | 43 nM
55 | CCc1ncnc(-c2ccc(C(=O)N3CCCC(O)C3)c(OC)c2)c1C#Cc1ccc(N)nc1 (stereo not drawn) [Example E-46] |  | 186 nM
56 | CCc1ncnc(-c2ccc(C(=O)N3CCN(Cc4ccccc4)CC3)c(C)c2)c1C#Cc1ccc(N)nc1 [Example E-115] |  | 153 nM
57 | CCc1ncnc(-c2ccc(C(=O)N3CCC(N4CCC(C)CC4)C3)c(Cl)c2)c1C#Cc1ccc(N)nc1 (stereo not drawn) [Example E-76] |  | 100 nM
58 | CCc1ncnc(-c2ccc(C(=O)N3CCCN(C)CC3)c(Cl)c2)c1C#Cc1ccc(N)nc1 [Example E-36] |  | 255 nM
59 | CCc1ncnc(-c2ccc(C(=O)N3CCC(C4CCN(C)CC4)CC3)c(Cl)c2)c1C#Cc1ccc(N)nc1 [Example E-21] |  | 77.6 nM
60 | CCc1ncnc(-c2ccc(C(=O)N3CCN(CC4CCCCC4)CC3)c(C)c2)c1C#Cc1ccc(N)nc1 [Example E-113] |  | 356 nM
61 | CCc1ncnc(-c2ccc(C(=O)N3CCN(CC4CCCCC4)CC3)c(OC)c2)c1C#Cc1ccc(N)nc1 [Example E-67] |  | 3300 nM
